Where “and” joins values, the source holds several entries; their conditions need not be identical. Equal entries are not always repeated. The campaign covered roughly 420,000 compounds. About 64,000 (15%) were called active. The inconclusive results got no clear call from the source; some entries with a clear call stand among them for comparison. Calls come from the whole dose curve; as a rule, active = well fitted inhibition curve with a large enough effect; inconclusive = small, poorly fitted or top-dose-only effect; inactive = flat fitted curve, though single readings scatter. Where the call is inconclusive, the potency comes from a doubtful curve fit.
Experiment: qHTS for Inhibitors of human tyrosyl-DNA phosphodiesterase 1 (TDP1): qHTS in cells in absence of CPT; note: nearly all actives have a fitted effect of over 55% in size
Details: DT40 Tdp1-/- hTDP1 cells, no CPT, ATP luminescence, 48 h; activity change, negative = growth inhibition: at 46.2 µM (top of the series) unless noted
Summary of the method: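 A cellular qHTS used chicken DT40 cells lacking endogenous Tdp1 but carrying stably transfected human TDP1. Compounds were applied without camptothecin, and cell growth kinetics were judged by ATP-dependent luminescence after ≥48 hr.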
% is set by controls: 0 for no effect and ±100 for the full control effect; potency is the fitted concentration of half-maximal effect; tags give direction and shape of the fitted curve.

SMILES	Potency	activity change, negative = growth inhibition
N#Cc1cnc(Oc2ccc(Cl)cc2)nc1N	inactive	–
COc1ccc(CN2CCC(C(=O)NC(C)c3cccc4ccccc34)CC2)cc1 (stereo not drawn)	inconclusive: 29.1 µM [inhibitor, single point]	–
CCC(CC)C(=O)Nc1nc2c(s1)CC(C)CC2 (stereo not drawn)	active: 18.4 µM	–
Cc1c(Cl)cccc1NC(=O)CSc1nnc(C)n1-c1ccccc1	inconclusive: 29.1 µM [inhibitor, single point]	–
Cc1cccc(NC(=O)CSc2ccc(-c3ccc4c(c3)OCO4)nn2)c1C	inconclusive: 7.31 µM [inhibitor, partial curve]	–
COc1ccc(Cn2c(-c3ccccc3C)nc3c(c(=O)c4ccccc4n3C)c2=O)cc1	inactive	–
OCC[C@H]1C[C@@H](O)[C@H](O)[C@@]2(OCCc3ccccc32)O1	inactive	–
Cc1ccc(/C=C(\NC(=O)c2ccc(C)cc2)C(=O)NCCCn2ccnc2)cc1	inactive	–
COc1ccc(CCNC(=O)C(=O)NCC2CCCN2S(=O)(=O)c2cc(C)ccc2C)cc1 (stereo not drawn)	inconclusive: 29.1 µM [inhibitor, single point]	–
Cc1oc(-c2ccccc2F)nc1CS(=O)CC(=O)NC1CCCCC1 (stereo not drawn)	inactive	–
O=c1c2cc(F)ccc2[nH]c(=S)n1CCCN1CCOCC1	inactive	–
COc1ccc(/C=C(\C#N)C(=O)Nc2cccc3ncccc23)cc1OC	inconclusive: 20.6 µM [inhibitor, single point]	–
Cc1cc(N)n2nc(-c3ccc(C(C)(C)C)cc3)cc2n1	active: 25.9 µM	–
Cn1cc(/C=C2\SC(=O)N(c3ccccc3)C2=O)c2ccccc21	inactive	–
Cc1ccccc1NC(=O)Nc1cccs1	inconclusive: 29.1 µM [inhibitor, single point]	–
O=C(COC(=O)c1ccccc1OCc1ccc(Cl)cc1)NCC1CCCO1 (stereo not drawn)	inconclusive: 29.1 µM [inhibitor, single point]	–
O=C(COC(=O)c1cc(Br)c(Br)s1)NCCC1=CCCCC1	active: 20.6 µM	–
Cc1cccc(CN2CCN(C(=O)c3cccc4ccccc34)CC2)c1	inconclusive: 20.6 µM [inhibitor, single point]	–
COc1ccc(Cl)cc1S(=O)(=O)N1CCC(C(=O)NCCc2ccccc2)CC1	inconclusive: 4.61 µM [inhibitor, single point]	–
O=C1c2oc3ccccc3c(=O)c2C(c2cccc(Br)c2)N1c1ccccn1 (stereo not drawn)	active: 16.4 µM	–
COc1cc(=O)n2c(c1C(=O)N(C)Cc1nccs1)CCN(Cc1cc3ccccc3s1)CC2	inconclusive: 23.1 µM [inhibitor, single point]	–
COc1ccc(-c2csc(C3=C(O)CN(Cc4ccc(S(N)(=O)=O)cc4)C3=N)n2)cc1OC	–	inconclusive: -32.5% [inhibitor]
CCS(=O)(=O)c1ccc2oc(SCC(=O)NCCc3ccc(F)cc3)nc2c1	inconclusive: 18.4 µM [inhibitor, partial curve]	–
N#C/C(=C\c1ccc(C(=O)O)cc1)c1ccccn1	inactive	–

SMILES	Potency	activity change, negative = growth inhibition
Cc1cc(C)c2nc(C(F)(F)F)nc(NCCCN3CCOCC3)c2c1	inconclusive: 18.4 µM [inhibitor, single point]	–
CCCC(C(=O)NC(C)(C)C)N(Cc1ccccc1)C(=O)c1snc(C(N)=O)c1N (stereo not drawn)	inconclusive: 13 µM [inhibitor, partial curve, poor fit]	–
COc1ccc(-n2c(SCC(=O)Nc3ccc4c(c3)OCO4)nnc2C(C)N2CCCCC2)cc1 (stereo not drawn)	inconclusive: 13 µM [inhibitor, partial curve]	–
Clc1ncc(C#Cc2ccccc2)c2ncncc12	active: 0.794 µM	–
COc1ccc(/C=C/C(=O)c2ccc(O)cc2)cc1CN1CCOCC1	active: 29.1 µM	–
COc1ccccc1N1CCN(C(=O)c2cc3ccccc3[nH]2)CC1	inconclusive: 29.1 µM [inhibitor, single point]	–
O=C(COC(=O)/C=C/c1ccc(Cl)c(Cl)c1)NC1CCS(=O)(=O)C1 (stereo not drawn)	active: 18.4 µM	–
CCn1nnc(NC(=O)c2c(OC)cccc2OC)n1	inactive	–
C[C@@H](NC(=O)c1nc[nH]c1C(=O)OCc1ccccc1)c1ccccc1	inconclusive: 16.4 µM [inhibitor, partial curve]	–
CN1CCN(CCOCCOc2c(Cl)cc(Cl)cc2Cl)CC1	active: 16.4 µM	–
CC(=O)c1cc2c(cc1NC(=O)Cn1nc(-c3ccc(F)cc3)ccc1=O)OCO2	–	inconclusive: -31.5% [inhibitor]
COCCn1c(=NC(=O)c2nc3ccccc3s2)sc2cc(S(C)(=O)=O)ccc21	inconclusive: 8.2 µM [inhibitor, partial curve]	–
O=C(NC1CCCC1)C1c2ccccc2OCC(=O)N1CC(F)(F)F (stereo not drawn)	inactive	–
Cc1ccc2onc(CC(=O)N3CCN(c4cccc(C)c4C)CC3)c2c1	inconclusive: 18.4 µM [inhibitor, single point]	–
Cc1cc(=O)n2nc(N3CCC(C(=O)NCc4ccc(Cl)cc4)CC3)sc2n1	inactive and inconclusive: 25.9 µM [inhibitor, single point]	–
COc1ccc(C(C)=O)cc1CSc1nnc(C)n1-c1ccccc1	inactive	–
CC(Cc1ccccc1)NC(=O)C1(c2ccccc2)CCOCC1 (stereo not drawn)	inconclusive: 6.51 µM [inhibitor, single point]	–
C=C(C)CSc1nc2c(c(=O)[nH]c(=O)n2C)n1Cc1ccccc1	inconclusive: 16.4 µM [inhibitor, single point]	–
Cc1ccc(-c2nc3ccccn3c2NC(=O)c2ccco2)cc1	inactive	–
CCOC(=O)c1[nH]c2ccccc2c1NC(=O)c1cc(OCC)c(OCC)c(OCC)c1	inconclusive: 29.1 µM [inhibitor, single point]	–
CSCC[C@H](NC(=O)c1cccs1)c1nnc2ccccn12	inactive	–
Nc1nc2cc3c(cc2cc1C(=O)NCc1ccc(F)cc1)OCO3	active: 4.11 µM	–
COc1ccc(-c2noc(CSc3nnc(-c4ccncc4)n3-c3ccc(C)c(C)c3)n2)cc1	active: 13 µM	–
Clc1ccc(Nc2nc(-c3ccccc3)c3cc(Cl)ccc3n2)cc1	inactive	–

Source: PubChem BioAssay AID686978 (National Center for Advancing Translational Sciences (NCATS), 2013)
